Tested on: male wistar rats
Test: Toxicity test, oral administration for four days
Conditions: 100 mg/kg/day orally for four days

## CC(C)(C)OC(=O)COc1cc2c(=O)c(Cc3cccnc3)cn3c4ccc(Br)cc4c(c1)c23 [Example 3, 10-bromo-2-t-butoxycarbonylmethyloxy-5-(3-pyridylmethyl)-4H-pyrido[3,2,1-jk]carbazol-4-one]
  abnormal change in body weight and general symptoms: no abnormal change
Until the next morning of the completion of the administration
  dead case: no dead case

— patent EP0992240A1, “THERAPEUTIC AGENT FOR ERECTION FAILURE” (MOCHIDA PHARMACEUTICAL CO., LTD., priority 1997, dated 1998)
